PubChem BioAssay AID504832 (National Center for Advancing Translational Sciences (NCATS), 2011)
Screen size: about 310,000 compounds; about 18,000 (5.8%) were called active. Inconclusive means that the source gave no clear call. Such entries were picked first, then a sample of the others. Calls come from the whole dose curve; as a rule, active = well fitted inhibition curve with a large enough effect; inconclusive = small, poorly fitted or top-dose-only effect, or another doubt; inactive = no such curve, though single readings can be large or run the other way. Potencies of inconclusive entries are left out as doubtful fits.

test: Primary qHTS for delayed death inhibitors of the malarial parasite plastid, 48 hour incubation; conditions: P. falciparum luciferase growth in erythrocytes; series mostly up to 28.7 µM
How it was run: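 Erythrocytes infected with P. falciparum carrying an integrated firefly luciferase reporter (2% hematocrit, 0.1% parasitemia final) were exposed to compounds in RPMI 1640 with 0.5% Albumax at 37 C, 5% CO2. Growth inhibition was scored as reduced luminescence.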
Potency is the fitted concentration of half-maximal effect; tags give direction and shape of the fitted curve.

Row | SMILES | Potency
1 | O=C(Nc1nc2ccccc2[nH]1)c1cccc([N+](=O)[O-])c1 | inactive
2 | Cc1ccc(S(=O)(=O)N2CCN(C(=O)COC(=O)CC(C)c3ccccc3)CC2)c(C)c1 (stereo unspecified) | inconclusive [inhibitor, single point]
3 | C=CCNC(=O)C1CCCN(S(=O)(=O)c2ccc(-n3cnnn3)cc2)C1 (stereo unspecified) | inactive
4 | C/C(=N\NC(=O)c1ccc(NS(=O)(=O)c2cccs2)cc1)c1ccc(C(C)(C)C)cc1 | inactive
5 | Cc1cc(C)cc(NC(=O)N2c3ccccc3NC(=O)CC2C)c1 (stereo unspecified) | inactive
6 | O=C(CCNC(=O)c1ccc([N+](=O)[O-])cc1)Nc1ccc(Cl)c(S(=O)(=O)N2CCOCC2)c1 | inconclusive [inhibitor, partial curve]
7 | Cc1ccc(S(=O)(=O)c2nc(S(=O)(=O)CCO)sc2N2CCOCC2)cc1 | inactive
8 | CC(NCC(=O)Nc1ccccc1C(=O)NC1CC1)c1cccc(C(F)(F)F)c1 (stereo unspecified) | inconclusive [inhibitor, partial curve]
9 | Cc1ccc(OCCCC(=O)Nc2ccc(N3CCOCC3)cc2)cc1 | inconclusive [inhibitor, full curve, poor fit]
10 | Cc1ccc2[nH]c(=O)c(C(c3nnnn3C3CCCC3)N3CCCc4ccccc43)cc2c1 (stereo unspecified) | inconclusive [inhibitor, single point]
11 | CCOC(=O)Cc1csc(NC(=O)Nc2ccc(Cl)cc2)n1 | inconclusive [inhibitor, single point]
12 | Cc1ccc(Br)cc1S(=O)(=O)Nc1cccnc1 | inconclusive [inhibitor, single point]
13 | CC(Oc1ccc(Br)cc1)C(=O)NCC(c1ccco1)N1CCCCC1 (stereo unspecified) | active: 11.7 µM
14 | c1ccc(CCc2ccccc2-c2nc(-c3ccccn3)no2)cc1 | inconclusive [inhibitor, single point]
15 | CCOc1ccc(Cl)cc1CNCCNCCO | inconclusive [inhibitor, full curve, poor fit]
16 | CCOc1cc(N2CCOCC2)c(OCC)cc1NC(=O)c1nc2nc(C)cc(C)n2n1 | inconclusive [inhibitor, single point]
17 | CCCCSCCCNC(=O)c1ccc(CS(=O)(=O)c2ccc(OC)cc2)o1 | inconclusive [inhibitor, single point]
18 | OC(CN1C2=NCCN2c2ccccc21)c1ccc2c(c1)OCO2 (stereo unspecified) | inconclusive [inhibitor, single point]
19 | CC(C)Cc1nc2ccc(N)cc2[nH]1 | inconclusive [inhibitor, single point]
20 | O=C(NC1c2ccccc2-c2ccccc21)N1CCOCC1 | inactive
21 | CCn1cc([N+](=O)[O-])c(C(=O)N2N=C(c3ccc(Cl)c(Cl)c3)CC2c2ccccc2O)n1 (stereo unspecified) | active: 3.7 µM
22 | Cc1ccc(-n2c(O)c(C=Nc3ccccc3-c3n[nH]c(=S)[nH]c3=O)c3ccccc3c2=O)cc1C | inconclusive [inhibitor, partial curve, poor fit]
23 | CC(C)CN1CCC(=O)N([C@H](CSc2ccccc2)Cc2ccccc2)CC1 | inconclusive [inhibitor, partial curve, poor fit]
24 | CSc1ccc(C(=O)N2CCC(CCC(=O)NC3CC3)CC2)cc1 | inactive

Row | SMILES | Potency
25 | CC(C)[C@@H]1C=C(C(=O)O)O[C@H](OCCCCO)C1 | inactive
26 | Oc1cc2c(cc1CN1CCc3ccccc3C1)OCO2 | inactive
27 | COc1ccc(OC)c(CN(CCN2CCOCC2)S(=O)(=O)c2ccc(NC(C)=O)cc2)c1 | inconclusive [inhibitor, single point]
28 | C=CCn1c(-c2cccn(Cc3ccc(Cl)cc3Cl)c2=O)n[nH]c1=S | inconclusive [inhibitor, single point]
29 | O=C(OCc1nc2ccsc2c(=O)[nH]1)c1cc(Br)c(Br)s1 | inconclusive [inhibitor, full curve, poor fit]
30 | Cc1ccc(-n2c(Cn3ncc4ccccc4c3=O)n[nH]c2=S)cc1 | inactive
31 | COc1ccc(-c2cc(C(=O)N3CCN(C(c4ccccc4)c4ccccc4)CC3)no2)cc1OC | active: 7.38 µM
32 | Cc1c(NC(=O)C(C)C)cccc1-c1nc2ncccc2o1 | inactive
33 | COc1cc(/C=C(/NC(=O)c2ccccc2)C(=O)Nc2ccc(O)cc2)c([N+](=O)[O-])cc1OC | inactive
34 | CCC(Sc1nc2ccccc2c(=O)[nH]1)C(=O)O (stereo unspecified) | inactive
35 | CCCC1=[N+](CC(=O)c2ccccc2)CCn2cccc21 | inactive
36 | COc1ccccc1CN(Cc1ccco1)S(=O)(=O)c1ccc(-n2cnnn2)c(OC)c1 | active: 13.1 µM
37 | O=C(CN1CCN(C(C(=O)Nc2ccc(F)cc2)c2ccccc2)CC1)NC1CC1 (stereo unspecified) | inconclusive [inhibitor, partial curve]
38 | Cc1cccc(NC(=O)CNC(=O)CN2C(=O)NC3(CCc4ccccc43)C2=O)c1C (stereo unspecified) | inconclusive [inhibitor, single point]
39 | COc1ccc(C2CC(c3ccc4ccccc4c3OC(C)=O)=NN2C(=O)/C=C/c2ccccc2)cc1 (stereo unspecified) | active: 11.7 µM
40 | Cc1cc2cc(CN(Cc3cccs3)Cc3nnnn3CC3CCCO3)c(=O)[nH]c2cc1C (stereo unspecified) | inconclusive [inhibitor, single point]
41 | CCOC(=O)CC(=O)CSc1ncc(C(=O)OCC)c(N)n1 | inactive
42 | Cc1cc(Nc2ccccc2)nn1C(=O)c1ccc(Cl)cc1 | inactive
43 | Cc1cc(Br)ccc1SCC(=O)NCC(c1ccco1)N1CCCCC1 (stereo unspecified) | inconclusive [inhibitor, partial curve, poor fit]
44 | O=C(/C=C/c1ccccc1Cl)NCc1ccccc1 | inactive
45 | CCO[C@@H]1OC(C(=O)NCc2ccccc2)=C[C@H](C2CCCCC2)[C@H]1CCCO | inconclusive [inhibitor, single point]
46 | O=C(Nc1ccc(S(=O)(=O)NCc2ccco2)cc1)c1ccc(F)cc1 | inconclusive [inhibitor, single point]
47 | CC1=C(C(=O)Nc2cc(C(=O)N3CCC(C)CC3)ccc2C)SCCO1 | inactive
48 | COc1cc(/C=N/N=C(/N)c2nonc2N)cc(Br)c1OCc1cccc(C)c1 | inconclusive [inhibitor, single point]

Row | SMILES | Potency
49 | Cc1onc(-c2c(F)cccc2Cl)c1-c1nnc(-c2ccc(C(F)(F)F)cc2)o1 | active: 8.28 µM
50 | CN(C(=O)C1CCC(=O)N(Cc2ccccc2F)C1)C1CCOCC1 (stereo unspecified) | inactive
51 | OCC#CCSc1nnc(-c2ccccc2Br)o1 | inactive
52 | O=C(c1ccco1)N1CCN(c2ccc([N+](=O)[O-])cc2Cl)CC1 | inconclusive [inhibitor, single point]
53 | CCn1nc(C)c([N+](=O)[O-])c1C(=O)NNC(=O)c1ccc(Cl)cc1 | inactive
54 | O=C(N/N=C\c1c(O)ccc2ccccc12)c1ccc(S(=O)(=O)N2CCCCC2)cc1 | active: 1.47 µM
55 | COc1ccc(CN2CCN(Cc3cccc4nonc34)CC2CCO)c(C)c1C (stereo unspecified) | inconclusive [inhibitor, single point]
56 | CC(OC(=O)CCN=C1NS(=O)(=O)c2ccccc21)C(=O)c1ccccc1 (stereo unspecified) | inconclusive [inhibitor, partial curve, poor fit]
57 | O=C(Nc1cccc(-c2csc(Nc3ccc(Cl)cc3)n2)c1)c1cccc(C(F)(F)F)c1 | inconclusive [inhibitor, single point]
58 | COc1ccc(-c2nnc(CSc3nc4ccccc4c(=O)n3CC3CCCO3)o2)cc1OC (stereo unspecified) | inactive
59 | Cn1cnnc1SCC(=O)N1N=C2/C(=C/c3ccco3)CCCC2C1c1ccco1 (stereo unspecified) | inconclusive [inhibitor, single point]
60 | CC(C)n1ncc2c(C(=O)NCc3ccccc3CN(C)C)cc(C3CC3)nc21 | active: 11.7 µM
61 | CCc1ccccc1NC(=S)N(Cc1cccnc1)Cc1ccco1 | inconclusive [inhibitor, partial curve, poor fit]
62 | CCN(CC)S(=O)(=O)c1ccc(=O)n(CC(=O)N2Cc3ccccc3CC2C(N)=O)c1 (stereo unspecified) | inactive
63 | COC(=O)[C@]1(CC(C)C)N[C@H](c2ccc(-c3ccc(F)cc3)cc2)[C@@H]2C(=O)N(C)C(=O)[C@@H]21 | active: 3.29 µM
64 | Oc1ccccc1-c1nc2cnccn2c1Nc1ccc2c(c1)OCCO2 | inconclusive [inhibitor, single point]
65 | O=C1C2CCCCC2C(=O)N1c1ccc(NC2CCN(Cc3ccccc3)CC2)c([N+](=O)[O-])c1 (stereo unspecified) | inconclusive [inhibitor, partial curve, poor fit]
66 | Cc1[nH]c2ccccc2c1/C=C/c1nc2ccccc2c(=O)[nH]1 | inconclusive [inhibitor, partial curve, poor fit]
67 | CS(=O)(=O)N(CC(=O)NCCSCc1c(F)cccc1Cl)c1cccc([N+](=O)[O-])c1 | inactive
68 | CCc1nc(Sc2nnnn2-c2ccccc2)c2c3c(sc2n1)CCCC3 | active: 11.7 µM
69 | Cc1cnc(CN2CCCC(C(=O)c3ccc4c5c(cccc35)CC4)C2)[nH]1 (stereo unspecified) | inconclusive [inhibitor, single point]
70 | COc1ccc(N2CCC(CNS(=O)(=O)c3cccc(C(F)(F)F)c3)C2)cc1 (stereo unspecified) | inconclusive [inhibitor, single point]
71 | CC(C)NCC(O)c1ccc(O)c(O)c1 (stereo unspecified) | inconclusive [inhibitor, single point]
